Experimental data as given in publication PMC9911399, “Two distinct binding modes provide the RNA-binding protein RbFox with extraordinary sequence specificity”.
Changes are numbered by the printed parent chain; changes in the protein carry UniProt numbers. Some of the results follow.

B1: UGCUAUG (DNA:RNA)
RNA: GGGAGACCGGAAUUCAGAUUGUCCUGCUAUGUUAAAUCCCGUCGUAGCCACCA
DNA 1: CAATCTGAATTCCGGTCTCCC
DNA 2: TGGTGGCTACGACGGGATT
B2: GAGCGAU (DNA:RNA)
RNA: GGGAGACCGGAAUUCAGAUUGUCCGAGCGAUUUAAAUCCCGUCGUAGCCACCA
DNA 1: CAATCTGAATTCCGGTCTCCC
DNA 2: TGGTGGCTACGACGGGATT
B3: UAGAGUA (DNA:RNA)
RNA: B2 RNA with G25U, C28A, A30U, U31A
DNA 1: CAATCTGAATTCCGGTCTCCC
DNA 2: TGGTGGCTACGACGGGATT
B4: AAUGAGA (DNA:RNA)
RNA: B2 RNA with G25A, G27U, C28G, G29A, A30G, U31A
DNA 1: CAATCTGAATTCCGGTCTCCC
DNA 2: TGGTGGCTACGACGGGATT
B5: GCCUUGC (DNA:RNA)
RNA: B1 RNA with U25G, G26C, A29U, U30G, G31C
DNA 1: CAATCTGAATTCCGGTCTCCC
DNA 2: TGGTGGCTACGACGGGATT
B6: CAAAAUA (DNA:RNA)
RNA: B1 RNA with U25C, G26A, C27A, U28A, G31A
DNA 1: CAATCTGAATTCCGGTCTCCC
DNA 2: TGGTGGCTACGACGGGATT
B7: AGUGUAC (DNA:RNA)
RNA: B2 RNA with G25A, A26G, G27U, C28G, G29U, U31C
DNA 1: CAATCTGAATTCCGGTCTCCC
DNA 2: TGGTGGCTACGACGGGATT
B8: UGCAAGC (DNA:RNA)
RNA: B1 RNA with U28A, U30G, G31C
DNA 1: CAATCTGAATTCCGGTCTCCC
DNA 2: TGGTGGCTACGACGGGATT
B9: ACGGUGG (DNA:RNA)
RNA: B2 RNA with G25A, A26C, C28G, G29U, A30G, U31G
DNA 1: CAATCTGAATTCCGGTCTCCC
DNA 2: TGGTGGCTACGACGGGATT

Target: T1, RBFOX1 RRM (Homo sapiens, UniProt Q9NWB1 109-208)
T1 sequence: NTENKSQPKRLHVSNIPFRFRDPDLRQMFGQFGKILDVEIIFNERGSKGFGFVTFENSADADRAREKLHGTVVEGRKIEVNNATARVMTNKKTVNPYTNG
Test: EMSA; HiTS-Eq, 1 nM pool, 10 min; buffer printed only for the single-RNA assays: 10 mM Tris pH 7.5, 150 mM NaCl, 3.4 mM EDTA, 0.001% NP-40, 30 C
Settings: tags: His6 N-terminal (pET28a); label: 5' 32P
In short: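 These values rest on relative association constants, computed from read-count changes of each RNA species versus the control reaction and normalised to the cognate motif. Reads came from free RNA recovered by 8% native PAGE after purified RbFox RRM (wild type or mutant) at increasing concentrations was equilibrated for 10 min in 50 µL with 1 nM of a 5′-radiolabelled pool with 7 randomized nucleotides and DNA-annealed flanks.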

| Binder | binding signal |
| --- | --- |
| B1 | 0.0227 KA relative to UGCAUGU |
| B2 | 0.0126 KA relative to UGCAUGU |
| B3 | 0.0123 KA relative to UGCAUGU |
| B4 | 0.00787 KA relative to UGCAUGU |
| B5 | 0.0319 KA relative to UGCAUGU |
| B6 | 0.00214 KA relative to UGCAUGU |
| B7 | 0.00886 KA relative to UGCAUGU |
| B8 | 0.0196 KA relative to UGCAUGU |
| B9 | 0.0165 KA relative to UGCAUGU |
